Whole data set: some 81,000 sequences, median “one-hybrid fitness for binding NBS DNA” near -0.1, cut for the highest 2% near 0.36. Some of the results follow.
B1: Caulobacter ParB omega fusion; a variant is named by its letters at X, in order, B8GW30 (parent)
chain: MESVVVGEPGMSEGRRGLGRGLSALLGEVDAAPAQAPGEQLGGSREAPIEILQRNPDQPRRTFREEDLEDLSNSIREKGVLQPILVRPSPDTAGEYQIVAGERAWRAAQRAGLKTVPIMVRELDDLAVLEIGIIENVQRADLNVLEEALSYKVLMEKFERTQENIAQTIGKSXSHVANXMRLLXLPDEVQSYLVSGELTAXHARAIAAAADPVALAKQIIEGGLSVRETEALARKAPNLSAGKSKGGRPPRVKDTDTQALESDLSSVLGLDVSIDHRGSTGTLTITYATLEQLDDLCNRLTRGI

Variants of: B1
Experiment: one-hybrid fitness for binding NBS DNA (the Noc-binding site; scaled: cognate 1, non-cognate 0); higher = stronger binding
Conditions: with NBS DNA site
How it was run: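 On M9-minus-histidine containing 0.1 mM IPTG and 5 mM 3-AT, E. coli USO cells with a HIS3 reporter, site 19 bp from the promoter, grew 48 hours at 37°C to select Caulobacter ParB libraries randomised at four specificity codons. Plasmids from before and after were Illumina-sequenced, with three replicate libraries pooled and variants under 10 reads left out. Fitness is the log change in variant-to-wild-type read ratio, rescaled against cognate and non-cognate.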

one-hybrid fitness for binding NBS DNA, 0.258:
RKRN

one-hybrid fitness for binding NBS DNA, 0.259:
TRCT

one-hybrid fitness for binding NBS DNA, ≤ 0.2:
LCTS
DLAR
SSST
ELLT
RGVY
WVWT
AKRH
YQDL
TCSF
LTYN
SQCG
APLI
HHKY
QDDG
HRST
RSWG
SWRL
LEAT
AANC
PHSE
PKHY
SRRD
CVTI
PAAI
VCGT
SKTF
SDLW
GENG
PAQS
YYNS
QNHA
RAPE
EVAD
KTNH
ARTV
LRAI
LQEC
PPMA
GFQT
AKVC
QCDC
LQSC
ACKA
KEHL
VINV
PTSM
QEAG
RHLN
NNIL
SNCI
CLAC
CMTC
SYAY
NKED
TVRL
RVGG
DRPS
FVDR
FCRG
MSRS
CEVW
IWNS
DALE
LPQC
EQDT
RTPD
LLHC
PGVC
SAPD
SSMR
KITY
SVHD
LKGL
QTLW
QAFQ
RQRQ
WTSS
WVNS
MYHY
MGLY
IGCR
PWGK
KLSC
TRQF
ETNE
YRML
TSDG
DYCG
QNLL
NDKC
HYPG
NLRS
NNLM
DYLG
QNSS
PKYW
IIAT
PISV
KRWD
RKDQ
CWKY
LNYR
RSNP
YLKH
PSHF
PMNR
NFPI
LGDL
SKYY
CEQI
WGAR
CPTC
KMRF
QSFI
MKHC
AYTE
PQNL
TCVS
SLNY
QNCC
KALP
PNHM
SHSA
QTMQ
KSPI
RTIK
MLPL
DQRF
TFGD
SEVF
KRCY
PHLS
QQPF
PPTD
TQWV
PVLA
DNNF
NADR
QMNC
QHHQ
TIAT
KTST
TELC
CPYI
FGPS
SFHI
MGRS
WYYC

one-hybrid fitness for binding NBS DNA, 0.543:
RTTT

one-hybrid fitness for binding NBS DNA, 0.32:
QDNI

one-hybrid fitness for binding NBS DNA, 0.4:
QKRM
